Data taken from publication PMC4911916.
Results are given in words; binding and its absence hold for the method and conditions named. In cells and extracts the contact can be indirect. Some binding calls cover weakened binding; strength is not graded here.

Chains of the proteins cited; added tags and fusions are not shown. Lines headed by an entry give the natural chain unless they say otherwise; changes in a name come on top.
UniProt Q9UKV8: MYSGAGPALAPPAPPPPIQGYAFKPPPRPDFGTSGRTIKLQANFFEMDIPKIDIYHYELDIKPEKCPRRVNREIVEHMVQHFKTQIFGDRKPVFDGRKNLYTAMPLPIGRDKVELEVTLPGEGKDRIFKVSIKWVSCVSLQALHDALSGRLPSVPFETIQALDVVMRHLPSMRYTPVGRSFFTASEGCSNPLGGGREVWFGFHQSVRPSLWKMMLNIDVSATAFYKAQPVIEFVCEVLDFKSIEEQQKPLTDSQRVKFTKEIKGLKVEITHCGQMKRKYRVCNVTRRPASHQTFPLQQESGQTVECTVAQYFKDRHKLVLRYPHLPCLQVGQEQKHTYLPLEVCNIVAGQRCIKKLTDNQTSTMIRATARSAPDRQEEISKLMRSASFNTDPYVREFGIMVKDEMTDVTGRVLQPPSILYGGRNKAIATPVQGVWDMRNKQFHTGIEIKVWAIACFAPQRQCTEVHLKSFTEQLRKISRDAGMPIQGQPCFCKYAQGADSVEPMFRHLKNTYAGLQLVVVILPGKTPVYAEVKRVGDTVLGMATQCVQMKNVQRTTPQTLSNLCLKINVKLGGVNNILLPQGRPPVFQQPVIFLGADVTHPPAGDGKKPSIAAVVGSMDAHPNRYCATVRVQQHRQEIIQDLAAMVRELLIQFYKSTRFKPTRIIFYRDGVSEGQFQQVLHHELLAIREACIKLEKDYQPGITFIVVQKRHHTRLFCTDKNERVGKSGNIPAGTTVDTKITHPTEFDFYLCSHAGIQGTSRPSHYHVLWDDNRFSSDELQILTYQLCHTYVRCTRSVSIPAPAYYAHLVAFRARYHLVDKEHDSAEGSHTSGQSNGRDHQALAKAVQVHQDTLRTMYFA

Key:
[1] = molecular target: endogenous Argonaute 2 (AGO2) (human (endogenous in T47D)), Q9UKV8; assay: co-IP; anti-AGO2 antibody IP from a cytoplasmic sample, Western blot with anti-TRBP antibody (Supplemental Fig. S5); conditions: remark: other sources report otherwise
[2] = molecular target: endogenous Argonaute 2 (AGO2) (human (endogenous in T47D)) (UniProt Q9UKV8); assay: co-IP; anti-AGO2 antibody IP from T47D nuclear extract versus IgG control, Western blot of partners; 300 µg protein, 4°C, 6 washes in IP300 buffer (300 mM NaCl, 0.05% NP-40)

B1: TAR RNA binding protein (TRBP), Q15633-1 1-366 (protein)
chain: MSEEEQGSGTTTGCGLPSIEQMLAANPGKTPISLLQEYGTRIGKTPVYDLLKAEGQAHQPNFTFRVTVGDTSCTGQGPSKKAAKHKAAEVALKHLKGGSMLEPALEDSSSFSPLDSSLPEDIPVFTAAAAATPVPSVVLTRSPPMELQPPVSPQQSECNPVGALQELVVQKGWRLPEYTVTQESGPAHRKEFTMTCRVERFIEIGSGTSKKLAKRNAAAKMLLRVHTVPLDARDGNEVEPDDDHFSIGVGSRLDGLRNRGPGCTWDSLRNSVGEKILSLRSCSLGSLGALGPACCRVLSELSEEQAFHVSYLDIEELSLSGLCQCLVELSTQPATVCHGSATTREAARGEAARRALQYLKIMAGSK
**Q.** B1 was tested. Which binding [1] did it give?
**A.** Its binding is “binds”.

B2: TAR RNA binding protein (TRBP) (protein, UniProt Q15633-1 1-366)
chain: B1 chain
**Q.** With B2 as the binder, how does the binding [2] read?
**A.** Its binding is “no binding (condition: in nuclear extract)”.

B3: PSPC1 (protein, UniProt Q8WXF1 1-523)
chain: MMLRGNLKQVRIEKNPARLRALESAVGESEPAAAAAMALALAGEPAPPAPAPPEDHPDEEMGFTIDIKSFLKPGEKTYTQRCRLFVGNLPTDITEEDFKRLFERYGEPSEVFINRDRGFGFIRLESRTLAEIAKAELDGTILKSRPLRIRFATHGAALTVKNLSPVVSNELLEQAFSQFGPVEKAVVVVDDRGRATGKGFVEFAAKPPARKALERCGDGAFLLTTTPRPVIVEPMEQFDDEDGLPEKLMQKTQQYHKEREQPPRFAQPGTFEFEYASRWKALDEMEKQQREQVDRNIREAKEKLEAEMEAARHEHQLMLMRQDLMRRQEELRRLEELRNQELQKRKQIQLRHEEEHRRREEEMIRHREQEELRRQQEGFKPNYMENREQEMRMGDMGPRGAINMGDAFSPAPAGNQGPPPMMGMNMNNRATIPGPPMGPGPAMGPEGAANMGTPMMPDNGAVHNDRFPQGPPSQMGSPMGSRTGSETPQAPMSGVGPVSGGPGGFGRGSQGGNFEGPNKRRRY
**Q.** For B3, which binding [2] is on record?
**A.** The binding was “no binding”.
